B1: chr1:246839951:246840052:-|3pUTR|ENSG00000153207|msi1|FALSE|bound_elsewhere (ssRNA)
RNA: GGGAGUUCUACAGUCCGACGAUCAAAUGUAAAAUAAAUCUGUUUAUGGAUAUUGAGUGCAUCUUGUAUGUGCCUAAUAUUGAUAGGAUGAGAUGUCUGAACAAAUUUUUAUAAUAUUGCUGUGAAGGAGCUUGCUAUUGAACCCAACAGAGGAUUGAGCAUCA
B2: chr1:45660537:45660647:-|5pUTR|ENSG00000159592|unk|total|mutant (ssRNA)
RNA: GGGAGUUCUACAGUCCGACGAUCAUUUUUGAUCUAUUACCUUGAUGACAUUAUUUGUCCACACUUGAGCCCAUCUGUCUUUCCCGCUAUGACCUUGUUAUGAACAGUAUUUGCACUCGGUGCAAAUAUCCAUGUCUUACCUAACAACAGAGGAUUGAGCAUCA
B3: chr13:20822168:20822271:-|CDS|ENSG00000132953|unk|total|mutant (ssRNA)
RNA: GGGAGUUCUACAGUCCGACGAUCUCGAAAAAUCAGAGAAGAUUCAGAUAUGGCACAAGAUUCUCUGCAGUGCCUUGCCCAGUCCGCUUCUCUUCAUGGACCCAUCUUCCCAGAUGAAGGAUCACAAGUUGAUUAUCCCGCACACAACAGAGGAUUGAGCAUCA
B4: chr2:147927148:147927248:+|CDS|ENSG00000121989|msi1_unk|total|mutant (ssRNA)
RNA: GGGAGUUCUACAGUCCGACGAUCUGAAACCAUUGAAGAAUGUUGGGAUCACGACGCAGAAGCCAGGUUAUCAGCUGGAUGUGCCGGUGAAAGAAUUACCCAGAUGCAGAGACUAACAAAUAUUAUUACCACAGAGGACAUUGUCAACAGAGGAUUGAGCAUCA
B5: chr2:46903789:46903890:-|3pUTR|ENSG00000180398|msi1|FALSE|unique (ssRNA)
RNA: GGGAGUUCUACAGUCCGACGAUCAAAUUUCUGCAGCUGGCUUGAAUUUCUCCCCAGAAAAUGGGUUUUUCUUUUCUAUUGCAUAGUCAGGCUGCAAAUUUCCAAACUUUUAUGCUUUGCUUCCCUUAUUUAUAAGGGAAUGCCCAACAGAGGAUUGAGCAUCA
B6: chr12:100341478:100341579:+|3pUTR|ENSG00000136021|unk|FALSE|unique (ssRNA)
RNA: GGGAGUUCUACAGUCCGACGAUCCUAUUCUCCUAUUGCUAAAUGUGUGAUAUAUAGAGAGGAUGUAUAAAAGGAAAUGGAAAUAGACUAUGUACUUGUCUGGUUUUUGUUUGUUUUUAUUUUGGAAUGCUUAUAAGCCUCCUUCAACAGAGGAUUGAGCAUCA
B7: chr19:14119889:14120036:-|3pUTR|ENSG00000105011|msi1|total|mutant (ssRNA)
RNA: GGGAGUUCUACAGUCCGACGAUCAGCAGACCCACUCCAGCUUUCUGGUGUCACAGGCGGGAAUGUCCGUCCGCCGGCCGACUCCGAUCCCAUUUCUGUCCUGCUCCCAGGAAGAUUCUCCGGUCCUCUUCAAUCCAGCAGCCCCAACAGAGGAUUGAGCAUCA
B8: chr11:72192224:72192325:+|CDS|ENSG00000110195|unk|FALSE|unique (ssRNA)
RNA: GGGAGUUCUACAGUCCGACGAUCAGACAUGGCUCAGCGGAUGACAACACAGCUGCUGCUCCUUCUAGUGUGGGUGGCUGUAGUAGGGGAGGCUCAGACAAGGAUUGCAUGGGCCAGGACUGAGCUUCUCAAUGUCUGCAUGAACAACAGAGGAUUGAGCAUCA
B9: chr2:1632407:1632508:-|3pUTR|ENSG00000130508|msi1|FALSE|unique (ssRNA)
RNA: GGGAGUUCUACAGUCCGACGAUCUUGGUAAGUGAUUGAUAAAAAUUGGUUGGUGUUUCAUGACAUGUGGACUUCUUUUGAAAUAGCAAGUCAAAUGUAGUGACCAAAUUGUGGAAGAGAUUUCUGUCAAAUAGGAAAUGUGUACAACAGAGGAUUGAGCAUCA
B10: chr1:10469171:10469279:-|CDS|ENSG00000160049|unk|total|mutant (ssRNA)
RNA: GGGAGUUCUACAGUCCGACGAUCGUGGAUGAUGACGAUUACUUUCUGUGUCUACCUUCCAAUACUAAGUUUGUGGCAUUGGCCCGUAAUGAGAAAUGGGCAUACAACAAUUCAGGUAAGAAACUCCCGCCAUGUAUAAAACGGCAACAGAGGAUUGAGCAUCA
B11: chr10:103999120:103999255:+|CDS|ENSG00000065613|unk|FALSE|unique (ssRNA)
RNA: GGGAGUUCUACAGUCCGACGAUCAUCUAAGGACAGACCCUAUGACUACAAAGCUGAUGUUUGGUCCCUGGGUAUCACUUUAAUAGAAAUGGCUGAGAUAGAACCACCUCAUCAUGAAUUAAAUCCAAUGCGAGUGCUGCUAAACAACAGAGGAUUGAGCAUCA
B12: chr7:128862928:128863052:+|CDS|ENSG00000128524|unk|total|mutant (ssRNA)
RNA: GGGAGUUCUACAGUCCGACGAUCUAAGCUCAUCGCAGUGAUCGGAGACGAGGACACGGUGACUGGUUUCCUGCUGGGCGGCACCGGGGAGCUUAACAAGAACCGCCAUCCCAAUUUCCUGGUGGUGGAGAAGGAUACAACCAUCAACAGAGGAUUGAGCAUCA
B13: chr17:18931026:18931127:+|3pUTR|ENSG00000141127|msi1|total|mutant (ssRNA)
RNA: GGGAGUUCUACAGUCCGACGAUCGAUACCUGCAAUUGAAAAGCCGAAAAGAUUAUACUGUCAAGUCCAGUAAAUGACAUUUUCCGAGAUGCUUUUGCCGACAAGCAUAUGGAAUAUGUGAUUGUAUUUAUUUUCUGCAACUAACAACAGAGGAUUGAGCAUCA
B14: chr16:31060842:31061067:-|three_prime_utr|ENSG00000167394|control|control|control (ssRNA)
RNA: GGGAGUUCUACAGUCCGACGAUCCCGGGAGCCCAGCCCCCAUCGGGGGCUUCCUGUACCUCCUUUUGCCUGGCUCUGCUCUUUAGACUCCAGAUCCCUACCCCUCAGCAACUAGCUCCCCUGUCGGCCAGCUAAGAGAGCUGGCAACAGAGGAUUGAGCAUCA
B15: chr5:93620789:93620892:-|3pUTR|ENSG00000113391|unk|FALSE|unique (ssRNA)
RNA: GGGAGUUCUACAGUCCGACGAUCCAGCCCCUCAUUAGAUUGUUUUCUUCCCAGAGCCCAGGGUCGUGAUAUAUACAUCUAAAUAGCGUUUUGCAUUAUUUCUAGAUGAGUGCAACUGUCAAAGCAAUAUGGGUUCACUGGUCGCAACAGAGGAUUGAGCAUCA
B16: chr10:15076158:15076259:-|3pUTR|ENSG00000176244|unk|FALSE|unique (ssRNA)
RNA: GGGAGUUCUACAGUCCGACGAUCAGAUCCCUUAAGAUAAAUAUCCCCCAAAACAGUGUACCUCUAUUCCCUGCAUAAAAAUUUAGAUUUGGAAUGGUAUGACCAGAGGAAUAGAUCCACUUCAUGUUACUACAACAACAAAACCAACAGAGGAUUGAGCAUCA
B17: chr18:9859767:9859850:+|3pUTR|ENSG00000168461|msi1_unk|FALSE|overlapping (ssRNA)
RNA: GGGAGUUCUACAGUCCGACGAUCUUGUUACCUAACCAACCUUCACUGAAAGGCAAAUUUAGUUCAGGAGGUUAGUUUUUAGCUAGCUUUGGAAGUAAGCCUUUAUUUAUUACUUUUUGGAGGAAAUCAGAGAAGUGUCAAUGGCAACAGAGGAUUGAGCAUCA
B18: chr8:93922960:93923061:+|CDS|ENSG00000164951|msi1|FALSE|unique (ssRNA)
RNA: GGGAGUUCUACAGUCCGACGAUCCGGCUCAUGGUCAGCAGUCACGCUGUCUAAUGACCACAAUGCUCAAAAUGAAAGAGAACUAGAACGGCUGAAAUUGGAACAUCCAAAGAGUGAGGCCAAGAGUGUCGUGAAACAGGAUCGCAACAGAGGAUUGAGCAUCA
B19: chr9:16436428:16436529:-|CDS|ENSG00000173068|msi1|total|mutant (ssRNA)
RNA: GGGAGUUCUACAGUCCGACGAUCCUCCCCCGCCAGCCCGUAUUUUCUGGGCUAAAGACUGUACAACCAGUUCCUCCAUUUUACCGAAGUUUACUCACUCCAGGGGAAAUGGUGAGUCCUCCAACCUCCCUCCCAACCAGUCCCCAACAGAGGAUUGAGCAUCA
B20: chr1:52238154:52238269:+|CDS|ENSG00000157077|unk|FALSE|unique (ssRNA)
RNA: GGGAGUUCUACAGUCCGACGAUCUCUGAUAGUCUAGCCAGUGUCUGUUCCCCUUCACAAUUAAAGGAUGACGGAAGUAUAGGUAGAGACCCCUCCAUGUCUGCGAUUACAAGUUUAACGGUUGAUUCAGUAAUCUCAUCCCAGCAACAGAGGAUUGAGCAUCA
B21: chr10:78035461:78035635:+|CDS|ENSG00000138326|unk|FALSE|unique (ssRNA)
RNA: GGGAGUUCUACAGUCCGACGAUCCAUUGAUGUCCUUCACCCCGGGAAGGCGACAGUGCCUAAGACAGAAAUUCGGGAAAAACUAGCCAAAAUGUACAAGACCACACCGGAUGUCAUCUUUGUAUUUGGAUUCAGAACUCAUUUCAACAGAGGAUUGAGCAUCA
B22: chr1:205810550:205810651:-|5pUTR|ENSG00000133065|unk|FALSE|bound_elsewhere (ssRNA)
RNA: GGGAGUUCUACAGUCCGACGAUCUUGCGGCUUCAGUGCUUGAUGGGGCUGCCUGUUGGUGGAUCAGUUUUUGCAGUGCCUGGUAGGAGUGGAGAGCCGUGGGAAGAGGUCCUGCGGCGCCCAAGCCUGGGUUCACCCCAAGACCAACAGAGGAUUGAGCAUCA

Some of the results follow.

This test deals with T1, UNK ZnF1-6 (called full-length) (human, UniProt Q9C0B0 30-357).
T1 sequence: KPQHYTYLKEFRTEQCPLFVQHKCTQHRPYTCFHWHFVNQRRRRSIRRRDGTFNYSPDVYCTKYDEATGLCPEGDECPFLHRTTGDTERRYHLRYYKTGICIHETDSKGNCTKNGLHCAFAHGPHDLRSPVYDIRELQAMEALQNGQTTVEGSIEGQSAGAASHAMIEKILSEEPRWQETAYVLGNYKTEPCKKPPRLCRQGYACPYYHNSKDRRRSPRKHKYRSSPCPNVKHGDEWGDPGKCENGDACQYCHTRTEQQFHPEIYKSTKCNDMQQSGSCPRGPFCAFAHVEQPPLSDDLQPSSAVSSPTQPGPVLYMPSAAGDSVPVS
The test can be described thus: nsRBNS (natural sequence RNA bind-n-seq); RBNS binding buffer (assumed for nsRBNS): 25 mM Tris pH 7.5, 150 mM KCl, 3 mM MgCl2, 0.01% Triton X-100, 500 ug/ml BSA, 20 U/ml SUPERase-In, 4 C; UNK is unkempt and MSI1 is Musashi-1; names of the RNAs are library labels; protein concentration not given here; high values mean tight binding.
Take B1: the binding signal stood at 0.5 enrichment R.
To B2 belongs 0.322 enrichment R; to B3, 0.431 enrichment R.
Turning to B4, the binding signal is 0.932 enrichment R.
B5 gave a binding signal of 0.757 enrichment R.
With B6, the binding signal worked out at 0.31 enrichment R.
In the case of B7, the binding signal amounted to 0.84 enrichment R.
In the case of B8 it was 0.965 enrichment R.
In turn, B9 gave a binding signal of 1.12 enrichment R.
In turn, B10 displayed a binding signal of 0.543 enrichment R.
To B11 belongs 0.525 enrichment R; to B12, 0.803 enrichment R; to B13, 0.359 enrichment R.
In the case of B14 it was 0.865 enrichment R; in that of B15, 0.861 enrichment R.
In the case of B16 it was 0.582 enrichment R.
Molecule B17 displayed a binding signal of 0.637 enrichment R.
Take B18: the binding signal came out at 0.617 enrichment R.
In the case of B19 it was 0.939 enrichment R; in that of B20, 0.624 enrichment R.
With B21, the binding signal stood at 0.599 enrichment R.
In turn, B22 gave a binding signal of 0.767 enrichment R.

Source of the values: paper PMC12136788.
